Test results taken from the supplement of paper PMC4166925.
± gives the standard deviation of the averaged measurements. Over roughly 33,000 sequences, “E-score (dimensionless, -0.5 to 0.5)” has its median near -0.049; the highest 2% begin near 0.37. Some of the results follow.

system: T1, PmTbr T-box DNA-binding domain (GST fusion); assay: PBM E-score of 8-mer (E-score (dimensionless, -0.5 to 0.5)); Tbr is Tbrain of the sea star Patiria miniata (Pm) or the sea urchin Strongylocentrotus purpuratus (Sp); higher = stronger binding preference; most listed sequences are background and not binding sites; conditions: the construct has about 5 more residues each side
T1 sequence: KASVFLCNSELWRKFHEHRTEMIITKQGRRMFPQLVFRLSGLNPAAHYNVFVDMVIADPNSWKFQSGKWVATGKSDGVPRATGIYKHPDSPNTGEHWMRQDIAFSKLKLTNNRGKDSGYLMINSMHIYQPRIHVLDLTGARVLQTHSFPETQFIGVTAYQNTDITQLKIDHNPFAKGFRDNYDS
Method in brief: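 Using the Universal PBM Analysis Suite, every ungapped 8-mer received an enrichment E-score averaged over duplicate arrays. Probe intensities came from double-stranded Universal Agilent oligonucleotide arrays incubated with 200 nM GST-fused Tbr T-box DNA-binding domain in PBS (pH 7.5). That protein was expressed in BL21 E. coli at 20 °C and purified by glutathione affinity chromatography.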

Row | Sequence | PBM E-score of 8-mer
1 | ACTGAGCC | -0.306 ± 0.061
2 | CAGAGAGA | -0.0489 ± 0.017
3 | AAATCCAA | -0.0951 ± 0.03
4 | ATAACTGG | -0.194 ± 0.048
5 | GAAGGAGA | -0.276 ± 0.065
6 | CTAGCAAG | 0.0488 ± 0.014
7 | GGAGAACA | -0.137 ± 0.0019
8 | CAAACCTG | 0.0391 ± 0.011
9 | GGTAAAAC | -0.122 ± 0.069
10 | ACAATCCG | -0.0812 ± 0.0072
11 | ATGGAGGA | -0.217 ± 0.015
12 | CTGAGCGA | -0.0671 ± 0.078
13 | AGGGCGCA | -0.11 ± 0.083
14 | GAGGCCTA | -0.176 ± 0.014
15 | CACGTATC | 0.107 ± 0.0078
16 | CAGGGTCA | -0.135 ± 0.02
17 | CAAGGTGG | 0.323 ± 0.03
18 | CACAACGA | 0.0942 ± 0.03
19 | CCTTGTGA | 0.0952 ± 0.026
20 | CGCTGCCC | 0.0291 ± 0.018
21 | CGGTTTCA | 0.163 ± 0.071
22 | AGAAATTC | -0.0651 ± 0.031
23 | AGCTAAGG | -0.172 ± 0.11
24 | ACCACCAC | 0.0224 ± 0.049
25 | AAATCGCA | 0.297 ± 0.0062

Row | Sequence | PBM E-score of 8-mer
26 | CAGTGCCG | -0.0615 ± 0.022
27 | GCAGATTA | -0.0303 ± 0.022
28 | CGGGGTAG | -0.189 ± 0.11
29 | AATTATTC | -0.119 ± 0.077
30 | AAGCTGCA | 0.137 ± 0.011
31 | AAGCCTCT | -0.0496 ± 0.045
32 | AAGGTGAG | 0.452 ± 0.0046
33 | CAAATTGA | 0.0471 ± 0.01
34 | TACGAACA | -0.0354 ± 0.071
35 | CAACCTCA | 0.133 ± 0.049
36 | CTACTGCC | -0.05 ± 0.057
37 | GCCCTTGA | -0.276 ± 0.04
38 | CGGAAGAA | -0.112 ± 0.026
39 | CCCGCAAC | -0.0891 ± 0.086
40 | TAGATGAA | -0.174 ± 0.066
41 | AAAAACTG | -0.118 ± 0.086
42 | CGGCAGGA | -0.0783 ± 0.02
43 | GAGGCTAA | -0.0691 ± 0.029
44 | ACGCTAGT | 0.036 ± 0.023
45 | CGGTGGCC | -0.258 ± 0.033
46 | GCCACTTA | 0.232 ± 0.021
47 | TACGACTA | -0.144 ± 0.023
48 | ATCTATTG | -0.176 ± 0.092
49 | GAGGTGCC | 0.409 ± 0.03
50 | GGGAATGA | -0.029 ± 0.011

Row | Sequence | PBM E-score of 8-mer
51 | AGACGCGG | -0.22 ± 0.049
52 | CCCCACTA | 0.0367 ± 0.057
53 | CAGCATAC | -0.00656 ± 0.045
54 | CAGAGCTC | -0.302 ± 0.05
55 | GCGCGACA | 0.36 ± 0.023
56 | GCACCAAC | 0.186 ± 0.014
57 | GAGTTACC | 0.122 ± 0.013
58 | ACGGTTCA | 0.0139 ± 0.058
59 | AGGCACAA | -0.122 ± 0.011
60 | AGAGATCT | -0.0691 ± 0.051
61 | GAACCGTC | -0.07 ± 0.048
62 | ACGGGCTC | -0.099 ± 0.03
63 | ACAACGCG | 0.162 ± 0.032
64 | AGGGAACC | -0.338 ± 0.013
65 | CGATCCTA | -0.154 ± 0.054
66 | GAGCTCGC | 0.0675 ± 0.032
67 | GAGTGTAA | 0.169 ± 0.061
68 | AAGGAAAA | -0.268 ± 0.071
69 | CCAGTATC | -0.116 ± 0.094
70 | AAGGCGGC | 0.0998 ± 0.036
71 | AGGGCAAT | -0.24 ± 0.022
72 | AGGGTAAA | -0.131 ± 0.048
73 | CCAATCAA | -0.159 ± 0.0096
74 | AACTTAAT | -0.0144 ± 0.063
75 | ACATAGTA | -0.105 ± 0.037

Row | Sequence | PBM E-score of 8-mer
76 | AACATATG | 0.00926 ± 0.035
77 | CCTTGAGA | -0.151 ± 0.027
78 | CTATGCGA | 0.106 ± 0.0032
79 | CATGACCA | -0.244 ± 0.0078
80 | ATAATCAT | -0.0737 ± 0.017
81 | ACCAGATC | 0.124 ± 0.021
82 | GGCTAGCA | 0.144 ± 0.016
83 | CCCGTGCG | -0.102 ± 0.0041
84 | ATGACGCC | 0.2638 ± 0.0024
85 | ACCTACCT | 0.041 ± 0.034
86 | ATCGAACG | 0.0189 ± 0.029
87 | AAATATGA | -0.117 ± 0.04
88 | ACATCTGC | -0.0416 ± 0.016
89 | CTGAGGAC | -0.0615 ± 0.0094
90 | GGTGTCGA | 0.461 ± 0.0086
91 | AGAACAGG | -0.154 ± 0.0051
92 | CATAATCC | -0.235 ± 0.087
93 | TTGTTAAA | 0.199 ± 0.035
94 | GCGCAGTA | -0.152 ± 0.044
95 | GATCGTCC | -0.304 ± 0.059
96 | ACTACGTC | -0.248 ± 0.03
97 | GAATGGGA | -0.214 ± 0.011
98 | ATATCTTC | -0.0858 ± 0.014
99 | CTTGCCCC | -0.0461 ± 0.026
100 | CCGAATTA | -0.204 ± 0.048

Row | Sequence | PBM E-score of 8-mer
101 | CACGGTTC | 0.129 ± 0.07
102 | AAGCACCC | -0.16 ± 0.029
103 | CTTTAAAA | -0.131 ± 0.048
104 | AATCTGAG | -0.0214 ± 0.071
105 | CAATACGA | -0.103 ± 0.052
106 | ACGGTCTG | -0.0405 ± 0.017
107 | GTGCCCAA | -0.132 ± 0.063
108 | GAGTATAC | -0.192 ± 0.0026
109 | CAGCTACA | -0.00135 ± 0.032
110 | GCCTTGCC | -0.0503 ± 0.012
111 | GACTAAGC | -0.311 ± 0.044
112 | CGGTTAGC | 0.178 ± 0.065
113 | CGTTAATA | -0.0106 ± 0.061
114 | ATTAAGTA | -0.154 ± 0.096
115 | GGGACAAC | -0.163 ± 0.034
116 | CAAGCTTA | -0.0937 ± 0.0022
117 | GACTGTCC | -0.13 ± 0.072
118 | GCCGGCCC | -0.322 ± 0.061
119 | GGGAAAAC | 0.0427 ± 0.0043
120 | CAATCAGG | 0.00619 ± 0.066
121 | TATGACAA | 0.0436 ± 0.061
122 | ACCATTCG | 0.233 ± 0.04
123 | CGTAAGTC | -0.127 ± 0.046
124 | ATTGCAAA | -0.103 ± 0.046
125 | ATTTGTTG | 0.0235 ± 0.013

Row | Sequence | PBM E-score of 8-mer
126 | AATGGAGA | -0.157 ± 0.08
127 | AGGCAAAG | -0.173 ± 0.09
128 | ACTAGTCT | -0.0838 ± 0.011
129 | CGGTAGGA | -0.168 ± 0.021
130 | GCCGCCGA | 0.0456 ± 0.048
131 | ATTCACGA | 0.29 ± 0.0094
132 | GACCCTGC | -0.037 ± 0.062
133 | AGGGATAA | -0.203 ± 0.032
134 | TACAAGTA | -0.118 ± 0.012
135 | GCACCGGC | -0.183 ± 0.021
136 | AGGGCGTA | 0.054 ± 0.053
137 | ATCCTACG | -0.284 ± 0.016
138 | CGTGCCGA | 0.159 ± 0.02
139 | ATAATCCA | -0.336 ± 0.063
140 | ATAGGGAG | 0.0101 ± 0.0015
141 | ATCTACAT | -0.0195 ± 0.017
142 | GGGTACGA | -0.0497 ± 0.091
143 | CCCACTTC | 0.1799 ± 0.00066
144 | ATATCCAG | -0.177 ± 0.02
145 | TAAACATA | -0.133 ± 0.029
146 | CCGGTCGA | -0.1 ± 0.056
147 | AAACATAA | -0.0683 ± 0.041
148 | GATGTTCA | 0.161 ± 0.013
149 | GACGGTCC | -0.0974 ± 0.024
150 | ACAAGTTG | 0.274 ± 0.0084

Row | Sequence | PBM E-score of 8-mer
151 | CAACGGGC | -0.103 ± 0.1
152 | AACAAACA | 0.0143 ± 0.064
153 | GCCAACGA | 0.0922 ± 0.0074
154 | AAATTTAG | -0.128 ± 0.1
155 | CCGGAGCG | -0.0906 ± 0.03
156 | CCTGCGTC | -0.101 ± 0.018
157 | CTGTTATA | 0.184 ± 0.016
158 | AAGCTATT | -0.242 ± 0.06
159 | ACGACGAG | 0.0538 ± 0.051
160 | GATTGTAA | -0.226 ± 0.0084
161 | CAACTTAG | 0.123 ± 0.042
162 | AAACGGAG | -0.092 ± 0.077
163 | CCGAAGTC | -0.117 ± 0.045
164 | CTACGCCA | -0.028 ± 0.049
165 | GCACACCC | 0.24 ± 0.055
166 | ACTACGCT | -0.146 ± 0.009
167 | TCAGGGCA | -0.159 ± 0.0023
168 | TGCATCCA | 0.0545 ± 0.011
169 | TCTGTTAA | 0.117 ± 0.056
170 | AGCACGCA | 0.133 ± 0.057
171 | AAACCCCT | -0.0778 ± 0.056
172 | ATTAGAAC | -0.161 ± 0.0031
